Test results taken from PubChem BioAssay AID2675 (National Center for Advancing Translational Sciences (NCATS), 2010).
In all, about 280,000 compounds went through this assay and about 100 (0.036%) were called active. This list was built around the results that the source calls inconclusive (neither active nor inactive); the mix of calls is not that of the screen. Calls come from the whole dose curve; as a rule, active = well fitted inhibition curve with a large enough effect in the signal ratio, with a control signal flat (not every such curve was filed as active); inconclusive = small, poorly fitted or top-dose-only effect, or effect the other way, or a change in a side signal; inactive = no such curve, though single readings can be large or run the other way; the % refers to the signal ratio. Where the call is inconclusive, the potency comes from a doubtful curve fit. A note “side channel” means that the fit belongs to a control or component signal, not to the main read-out.

Each molecule was assayed against Muscleblind-like protein 1 (Homo sapiens) (UniProt Q9NR56) (assay: qHTS Assay for Inhibitors of MBNL1-poly(CUG) RNA binding). Settings: TR-FRET MBNL1-His/biotin-(CUG)12 binding, 665/545 ratio; series mostly up to 57.5 µM.
Procedure, shortened: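 His-tagged MBNL1 binding to biotinylated (CUG)12 RNA was measured by TR-FRET using terbium anti-His antibody (0.055 ng/ul final) and streptavidin-XL665 (5 nM final). Compounds were titrated 92 nM to 58 uM; 60 min at room temperature.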
Potency is the fitted concentration of half-maximal effect; tags give direction and shape of the fitted curve or compound fluorescence and quenching.

UniProt Q9NR56, sequence (Q9NR56 whole entry, looked up): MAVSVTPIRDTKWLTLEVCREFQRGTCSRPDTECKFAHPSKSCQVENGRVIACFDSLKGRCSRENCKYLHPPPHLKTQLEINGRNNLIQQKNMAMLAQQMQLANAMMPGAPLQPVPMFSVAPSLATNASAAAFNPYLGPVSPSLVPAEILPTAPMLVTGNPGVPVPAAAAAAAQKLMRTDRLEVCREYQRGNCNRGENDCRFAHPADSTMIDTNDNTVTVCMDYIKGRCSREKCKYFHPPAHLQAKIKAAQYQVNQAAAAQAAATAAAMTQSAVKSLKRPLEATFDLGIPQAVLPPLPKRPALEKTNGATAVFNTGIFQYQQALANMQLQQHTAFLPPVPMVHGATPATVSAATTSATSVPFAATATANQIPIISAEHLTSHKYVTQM

Compound	Potency
O=c1c2ccccc2nc(-c2ccco2)n1/N=C/c1ccco1	inconclusive: 14.1 µM [quencher, side channel, partial curve]
CC1CCN(CCc2nc3cc(NC(=O)COc4ccc([N+](=O)[O-])cc4)ccc3n2C)CC1	inconclusive: 10 µM [quencher, side channel, partial curve]
O=C(CNC(=O)c1ccccc1)N/N=C/c1cccs1	inconclusive: 20 µM [quencher, side channel, single point]
COc1ccc(CC(=O)Nc2c(C(=O)N3CCN(c4ncccn4)CC3)oc3ccccc23)cc1	inactive
O=C(Nc1ncccn1)c1ccc([N+](=O)[O-])cc1Cl	inconclusive: 17.8 µM [quencher, side channel, partial curve]
O=C(N/N=C/c1ccc(-c2cccc([N+](=O)[O-])c2)o1)c1ccc([N+](=O)[O-])cc1	inconclusive: 3.98 µM [quencher, side channel, full curve]
Cc1ccc(C2=NS(=O)(=O)N(C)C(C(=O)Nc3cc(C)n(CC(=O)N4CCC(C)CC4)n3)=C2)cc1	inconclusive: 25.1 µM [quencher, side channel, partial curve]
Cc1ccc(NS(=O)(=O)c2cc3c4c(cccc4c2)C(=O)NC3=O)cc1C	inconclusive: 3.16 µM [quencher, side channel, full curve]
Cc1cccnc1NC(=O)c1ccc([N+](=O)[O-])o1	inconclusive: 12.6 µM [activator, partial curve]
Cc1[nH]n(C2=NCCS2)c(=O)c1N=Nc1ccccc1	inconclusive: 25.1 µM [quencher, side channel, partial curve]
CCNC(=O)c1ccc(CSc2nc3ccccc3s2)cc1	inconclusive: 15.8 µM [quencher, side channel, partial curve]
COc1cc(/C=C(/NC(=O)c2ccccc2Cl)C(=O)O)cc(OC)c1OC	inactive
Cc1ccc(OCc2ccc(Br)cc2)c([N+](=O)[O-])n1	inconclusive: 20 µM [quencher, side channel, partial curve]
CN(C(=O)COC(=O)c1cc([N+](=O)[O-])ccc1Cl)c1ccccc1	inconclusive: 25.1 µM [quencher, partial curve]
COc1ccc(-n2nc(C(=O)NCC(=O)NCCCN3CCOCC3)c3ccccc3c2=O)cc1	inconclusive: 15.8 µM [quencher, side channel, partial curve]
N#CCCn1cc(C(=O)Nc2ccc([N+](=O)[O-])cc2)c(-c2cccs2)n1	inconclusive: 20 µM [quencher, side channel, partial curve]
NC(=O)CSc1nc2ccccc2nc1SCC(N)=O	inconclusive: 39.8 µM [quencher, side channel, single point]
O=C(O)CC(NNC(=O)c1ccccc1)C(=O)Nc1ccc([N+](=O)[O-])cc1 (stereo unspecified)	inconclusive: 12.6 µM [quencher, side channel, partial curve]
Fc1ccc(CN2CCCN(C(=S)Nc3ccc(F)cc3)CC2)cc1	inactive
O=P(Cc1cccc[n+]1[O-])(c1ccccc1)c1ccccc1	inconclusive: 158 µM [inhibitor, partial curve, poor fit]
O=C(CCC(=O)Nc1cccc([N+](=O)[O-])c1)NCc1ccccc1	inconclusive: 12.6 µM [quencher, side channel, partial curve]

Compound	Potency
CC[N+](CC)(CC#Cc1ccccc1)CC(=O)c1ccc(Cl)cc1	inconclusive: 3.55 µM [quencher, side channel, partial curve]
Nc1nn(-c2ccccc2)c(N)c1N=Nc1ccccc1	inconclusive: 15.8 µM [quencher, side channel, partial curve]
COc1ccc(CCN(C(=O)c2snc(C(N)=O)c2N)C(C(=O)NCC2CCCO2)c2ccc(F)cc2)cc1OC (stereo unspecified)	inactive
CC(C)(C)c1ccc(OCCNCc2ccccc2)cc1	inactive
Cc1ccc(C)c(-n2c(-c3ccncc3)n[nH]c2=S)c1	inactive
Cc1ccnc(NS(=O)(=O)c2cccc([N+](=O)[O-])c2)c1	inconclusive: 12.6 µM [quencher, side channel, partial curve]
O=C(Nc1cccc2cccnc12)c1ccc(Br)cc1Br	inactive
C=CCc1c(C)[nH]c2c(OC)cccc2c1=S	inconclusive: 15.8 µM [quencher, side channel, partial curve]
O=C1C(NS(=O)(=O)c2cccs2)=C(N2CCN(c3cccc(C(F)(F)F)c3)CC2)C(=O)c2ccccc21	inconclusive: 14.1 µM [quencher, side channel, partial curve]
CCCC(=O)NCCc1cc2cc(C)c(C)cc2[nH]c1=O	inactive
Cn1cc([N+](=O)[O-])c(C(=O)NCc2cc3ccccc3[nH]2)n1	inconclusive: 14.1 µM [quencher, partial curve]
CCOC(=O)C1=C(N)OC2=C(C(=O)CC(C)(C)C2)C1c1ccc(C)s1 (stereo unspecified)	inconclusive: 31.6 µM [quencher, side channel, single point]
C/C(=N\NC(=O)CNC(=O)c1ccccc1Br)c1ccco1	inconclusive: 22.4 µM [quencher, side channel, single point]
Cc1cc(N2CCN(c3ccccc3)CC2)nc(-n2nc(C)cc2C)n1	inactive
COCCNC(=O)c1ccc(S(=O)(=O)N2CCCc3ccccc32)cc1	inactive
COc1ccc(OC/C(O)=C(\C#N)c2nc3ccccc3[nH]2)cc1	inactive
COc1ccc(NC(=O)CSc2nc3c(cc2C#N)CN(C)CC3)cc1	inconclusive: 7.08 µM [quencher, side channel, partial curve]
CN1C(=O)c2ccc(NC(=O)c3c(F)c(F)c(F)c(F)c3F)cc2C1=O	inconclusive: 8.91 µM [quencher, side channel, partial curve]
Cn1c(O)c(N=NC(=O)CNC(=O)c2ccco2)c2ccccc21	inconclusive: 15.8 µM [quencher, partial curve]
N#CC1=C(N)SC(N)=C(C#N)C1c1cccc(Oc2ccccc2)c1	inactive
C=CCSc1nc(C)c(CC(=C)C)c(=O)[nH]1	inconclusive: 79.4 µM [inhibitor, single point]

Compound	Potency
COc1ccc(C(=O)N/N=C(\N)c2cc3ccccc3oc2=O)cc1	inconclusive: 3.16 µM [quencher, side channel, full curve, poor fit]
COc1ccc(NS(=O)(=O)c2ccc(C)cc2)c([N+](=O)[O-])c1	inconclusive: 31.6 µM [quencher, side channel, single point]
NNC(=O)Cn1nc(-c2ccccc2)c2ccccc2c1=O	inactive
O=C(O)c1cccc(-n2cccc2/C=C2\NC(=O)N(Cc3ccc(F)cc3)C2=O)c1	inconclusive: 20 µM [quencher, side channel, single point]
COc1cc(/C=C/C(=O)c2ccc(C)c([N+](=O)[O-])c2)cc(OC)c1O	inconclusive: 4.47 µM [quencher, side channel, partial curve, poor fit]
O=C(COC(=O)c1cc([N+](=O)[O-])ccc1NCCO)c1ccccc1	inconclusive: 10 µM [quencher, partial curve]
O=C(Nc1ccc(S(=O)(=O)Nc2nccs2)cc1)c1ccc(N2C(=O)c3ccccc3C2=O)cc1	inconclusive: 39.8 µM [quencher, side channel, single point]
Cn1cnnc1SCC(=O)c1cc2ccccc2o1	inconclusive: 14.1 µM [quencher, partial curve]
CCN(CC)S(=O)(=O)c1ccc(NC(=O)c2cc(-c3ccccc3)nc3ccccc23)cc1	inconclusive: 39.8 µM [fluorescent, side channel, partial curve]
Cc1cc(OCc2cc(C(=O)N(C)CC3CCOCC3)no2)cc(C)c1Cl	inactive
O=C(COC(=O)c1ccc(-c2ccc([N+](=O)[O-])cc2)o1)NC(=O)NC1CCCCC1	inconclusive: 10 µM [quencher, side channel, partial curve]
COCCCN1C(=O)c2ccc(C(=O)Nc3ccccc3Cl)cc2C1=O	inconclusive: 12.6 µM [quencher, partial curve]
COc1ccc(CCNC(=O)Cn2nc([N+](=O)[O-])c(Br)c2C)cc1OC	inconclusive: 39.8 µM [quencher, side channel, single point]
c1ccc(-c2nc(-c3cccnc3)cs2)cc1	inconclusive: 28.2 µM [quencher, side channel, single point]
C=CCn1cc(-c2ccccc2)cc(C#N)c1=O	inconclusive: 28.2 µM [quencher, side channel, single point]
CCCCN(CC)Cc1c(O)ccc2c(-c3ccccc3)cc(=O)oc12	inconclusive: 15.8 µM [quencher, side channel, partial curve]
CCc1nnc(NC(=O)c2ccc(S(=O)(=O)N3CCCc4ccccc43)cc2)o1	inactive
CC(C)CC1(C)NC(=O)N(Cc2cc([N+](=O)[O-])cc3c2OCOC3)C1=O (stereo unspecified)	inconclusive: 3.16 µM [quencher, side channel, full curve]
COc1ccc(/C=C2\COc3ccccc3C2=O)cc1OC	inactive
